{"source": "the supplement of paper PMC8728848", "binders": {"B1": {"name": "Langerin (Homo sapiens), Q9UJ71 (protein)", "chain": "STLNAQIPELKSDLEKASALNTKIRALQGSLENMSKLLKRQNDILQVVSQGWKYFKGNFYYFSLIPKTWYSAEQFCVSRNSHLTSVTSESEQEFLYKTAGGLIYWIGLTKAGMEGDWSWVDDTPFNKVQSARFWIPGEPNDAGNNEHCGNIKAPSLQAWNDAPCDITFLFICKRPYVPSEP"}}, "assay_in_all_cases": "glycan array binding signal (z-score within array); higher = stronger binding", "settings_in_all_cases": "glycan notation: IUPAC condensed, linker removed; mutation: N288D, K313I", "key": {"[1]": {"target": "Gal(b1-4)GlcNAc(b1-2)Man(a1-6)[GlcNAc(b1-2)Man(a1-3)]Man(b1-4)GlcNAc(b1-4)GlcNAc", "summary_of_the_method": "(§1)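 From the Consortium for Functional Glycomics database, 3228 arrays were curated, keeping only those whose protein sequence was available. Binding is given as a within-array Z-score averaged across arrays sharing a protein sequence and across linkers. Negative Z-scores can be read as non-binding.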"}, "[2]": {"target": "Gal(b1-4)GlcNAc(b1-2)Man(a1-6)[Man(a1-3)]Man(b1-4)GlcNAc(b1-4)GlcNAc", "summary_of_the_method": "as §1"}, "[3]": {"target": "Gal(b1-4)GlcNAc(b1-2)[Gal(b1-4)GlcNAc(b1-4)]Man(a1-3)[Gal(b1-4)GlcNAc(b1-2)Man(a1-6)]Man(b1-4)GlcNAc(b1-4)GlcNAc", "summary_of_the_method": "as §1"}, "[4]": {"target": "Gal(b1-4)GlcNAc(b1-2)[Gal(b1-4)GlcNAc(b1-4)]Man(a1-3)[Gal(b1-4)GlcNAc(b1-2)[Gal(b1-4)GlcNAc(b1-6)]Man(a1-6)]Man(b1-4)GlcNAc(b1-4)GlcNAc", "summary_of_the_method": "as §1"}, "[5]": {"target": "Gal(b1-4)GlcNAc(b1-2)[Gal(b1-4)GlcNAc(b1-4)]Man(a1-3)[GlcNAc(b1-4)][Gal(b1-4)GlcNAc(b1-2)Man(a1-6)]Man(b1-4)GlcNAc(b1-4)GlcNAc", "summary_of_the_method": "as §1"}, "[6]": {"target": "Gal(b1-4)GlcNAc(b1-2)[Gal(b1-4)GlcNAc(b1-4)]Man(a1-3)[GlcNAc(b1-4)][Gal(b1-4)GlcNAc(b1-2)[Gal(b1-4)GlcNAc(b1-6)]Man(a1-6)]Man(b1-4)GlcNAc(b1-4)GlcNAc", "summary_of_the_method": "as §1"}, "[7]": {"target": "Gal(b1-4)GlcNAc(b1-2)[Gal(b1-4)GlcNAc(b1-6)]Man(a1-6)[Gal(b1-4)GlcNAc(b1-2)Man(a1-3)]Man(b1-4)GlcNAc(b1-4)GlcNAc", "summary_of_the_method": "as §1"}, "[8]": {"target": "Gal(b1-4)GlcNAc(b1-2)[Gal(b1-4)GlcNAc(b1-6)]Man(a1-6)[Gal(b1-4)GlcNAc(b1-2)Man(a1-3)]Man(b1-4)GlcNAc(b1-4)[Fuc(a1-6)]GlcNAc", "summary_of_the_method": "as §1"}, "[9]": {"target": "Gal(b1-4)GlcNAc(b1-2)[Gal(b1-4)GlcNAc(b1-6)]Man(a1-6)[GlcNAc(b1-4)][Gal(b1-4)GlcNAc(b1-2)Man(a1-3)]Man(b1-4)GlcNAc(b1-4)GlcNAc", "summary_of_the_method": "as §1"}, "[10]": {"target": "Gal(b1-4)GlcNAc(b1-2)[Gal(b1-4)GlcNAc(b1-6)]Man(a1-6)[GlcNAc(b1-4)][Gal(b1-4)GlcNAc(b1-2)[Gal(b1-4)GlcNAc(b1-4)]Man(a1-3)]Man(b1-4)GlcNAc(b1-4)[Fuc(a1-6)]GlcNAc", "summary_of_the_method": "as §1"}, "[11]": {"target": "Gal(b1-4)GlcNAc(b1-3)Gal(b1-3)GalNAc", "summary_of_the_method": "as §1"}, "[12]": {"target": "Gal(b1-4)GlcNAc(b1-3)Gal(b1-3)GlcNAc", "summary_of_the_method": "as §1"}, "[13]": {"target": "Gal(b1-4)GlcNAc(b1-3)Gal(b1-4)Glc", "summary_of_the_method": "as §1"}, "[14]": {"target": "Gal(b1-4)GlcNAc(b1-3)Gal(b1-4)GlcNAc", "summary_of_the_method": "as §1"}, "[15]": {"target": "Gal(b1-4)GlcNAc(b1-3)Gal(b1-4)GlcNAc(b1-2)Man(a1-3)[Gal(b1-4)GlcNAc(b1-3)Gal(b1-4)GlcNAc(b1-2)Man(a1-6)]Man(b1-4)GlcNAc(b1-4)GlcNAc", "summary_of_the_method": "as §1"}, "[16]": {"target": "Gal(b1-4)GlcNAc(b1-3)Gal(b1-4)GlcNAc(b1-2)Man(a1-3)[Gal(b1-4)GlcNAc(b1-3)Gal(b1-4)GlcNAc(b1-2)Man(a1-6)]Man(b1-4)GlcNAc(b1-4)[Fuc(a1-6)]GlcNAc", "summary_of_the_method": "as §1"}, "[17]": {"target": "Gal(b1-4)GlcNAc(b1-3)Gal(b1-4)GlcNAc(b1-2)[Gal(b1-4)GlcNAc(b1-3)Gal(b1-4)GlcNAc(b1-6)]Man(a1-6)[Gal(b1-4)GlcNAc(b1-3)Gal(b1-4)GlcNAc(b1-2)Man(a1-3)]Man(b1-4)GlcNAc(b1-4)GlcNAc", "summary_of_the_method": "as §1"}, "[18]": {"target": "Gal(b1-4)GlcNAc(b1-3)Gal(b1-4)GlcNAc(b1-2)[Gal(b1-4)GlcNAc(b1-3)Gal(b1-4)GlcNAc(b1-6)]Man(a1-6)[Gal(b1-4)GlcNAc(b1-3)Gal(b1-4)GlcNAc(b1-2)Man(a1-3)]Man(b1-4)GlcNAc(b1-4)[Fuc(a1-6)]GlcNAc", "summary_of_the_method": "as §1"}, "[19]": {"target": "Gal(b1-4)GlcNAc(b1-3)Gal(b1-4)GlcNAc(b1-3)Gal(b1-4)GlcNAc", "summary_of_the_method": "as §1"}, "[20]": {"target": "Gal(b1-4)GlcNAc(b1-3)Gal(b1-4)GlcNAc(b1-3)Gal(b1-4)GlcNAc(b1-2)Man(a1-3)[Gal(b1-4)GlcNAc(b1-3)Gal(b1-4)GlcNAc(b1-3)Gal(b1-4)GlcNAc(b1-2)Man(a1-6)]Man(b1-4)GlcNAc(b1-4)GlcNAc", "summary_of_the_method": "as §1"}, "[21]": {"target": "Gal(b1-4)GlcNAc(b1-3)Gal(b1-4)GlcNAc(b1-3)Gal(b1-4)GlcNAc(b1-2)Man(a1-3)[Gal(b1-4)GlcNAc(b1-3)Gal(b1-4)GlcNAc(b1-3)Gal(b1-4)GlcNAc(b1-2)Man(a1-6)]Man(b1-4)GlcNAc(b1-4)[Fuc(a1-6)]GlcNAc", "summary_of_the_method": "as §1"}, "[22]": {"target": "Gal(b1-4)GlcNAc(b1-3)Gal(b1-4)GlcNAc(b1-3)Gal(b1-4)GlcNAc(b1-2)[Gal(b1-4)GlcNAc(b1-3)Gal(b1-4)GlcNAc(b1-3)Gal(b1-4)GlcNAc(b1-6)]Man(a1-6)[Gal(b1-4)GlcNAc(b1-3)Gal(b1-4)GlcNAc(b1-3)Gal(b1-4)GlcNAc(b1-2)Man(a1-3)]Man(b1-4)GlcNAc(b1-4)[Fuc(a1-6)]GlcNAc", "summary_of_the_method": "as §1"}}, "note": "The other results are listed elsewhere or left out."}
{"binder": "B1", "values": [{"measurement": "glycan array binding signal (z-score)", "setting": "[1]", "result": -0.162}, {"measurement": "glycan array binding signal (z-score)", "setting": "[2]", "result": -0.086}, {"measurement": "glycan array binding signal (z-score)", "setting": "[3]", "result": -0.279}, {"measurement": "glycan array binding signal (z-score)", "setting": "[4]", "result": -0.351}, {"measurement": "glycan array binding signal (z-score)", "setting": "[5]", "result": -0.32}, {"measurement": "glycan array binding signal (z-score)", "setting": "[6]", "result": -0.293}, {"measurement": "glycan array binding signal (z-score)", "setting": "[7]", "result": -0.02}, {"measurement": "glycan array binding signal (z-score)", "setting": "[8]", "result": 0.022}, {"measurement": "glycan array binding signal (z-score)", "setting": "[9]", "result": -0.202}, {"measurement": "glycan array binding signal (z-score)", "setting": "[10]", "result": 0.023}, {"measurement": "glycan array binding signal (z-score)", "setting": "[11]", "result": -0.105}, {"measurement": "glycan array binding signal (z-score)", "setting": "[12]", "result": -0.016}, {"measurement": "glycan array binding signal (z-score)", "setting": "[13]", "result": -0.175}, {"measurement": "glycan array binding signal (z-score)", "setting": "[14]", "result": -0.254}, {"measurement": "glycan array binding signal (z-score)", "setting": "[15]", "result": 0.133}, {"measurement": "glycan array binding signal (z-score)", "setting": "[16]", "result": 0.022}, {"measurement": "glycan array binding signal (z-score)", "setting": "[17]", "result": 0.277}, {"measurement": "glycan array binding signal (z-score)", "setting": "[18]", "result": 0.286}, {"measurement": "glycan array binding signal (z-score)", "setting": "[19]", "result": -0.349}, {"measurement": "glycan array binding signal (z-score)", "setting": "[20]", "result": 0.142}, {"measurement": "glycan array binding signal (z-score)", "setting": "[21]", "result": 0.102}, {"measurement": "glycan array binding signal (z-score)", "setting": "[22]", "result": 0.208}]}
